Test results reported in the BET-seq Pho4 binding data (Le et al. 2018).
This is one part of the list. The energies were worked out here from pooled read counts, against the library average; single values are noisy.

biological target: T1, Pho4 (S. cerevisiae) (UniProt P07270); assay: relative binding free energy (BET-seq); higher = weaker binding; settings: reference: library average
T1 sequence: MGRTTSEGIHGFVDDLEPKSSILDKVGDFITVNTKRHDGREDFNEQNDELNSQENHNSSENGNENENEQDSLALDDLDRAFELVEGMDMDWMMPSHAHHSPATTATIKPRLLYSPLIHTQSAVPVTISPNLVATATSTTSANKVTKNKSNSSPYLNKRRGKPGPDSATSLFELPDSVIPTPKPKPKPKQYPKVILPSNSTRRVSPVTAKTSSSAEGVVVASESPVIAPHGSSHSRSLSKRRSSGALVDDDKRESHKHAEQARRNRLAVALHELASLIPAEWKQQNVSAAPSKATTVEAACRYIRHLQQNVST

| Sequence | relative binding free energy [kcal/mol] |
| --- | --- |
| TTTTCCACGTGGAGTG | -0.04 |
| TAAGTCACGTGGATGG | 0 |
| ATAAACACGTGGGGGA | -0.09 |
| GGGCGCACGTGGAGTG | -0.07 |
| TTTGCCACGTGTAAAT | 0.14 |
| CGTTGCACGTGAGTAT | 0.28 |
| GTAGTCACGTGGTTTA | 0.11 |
| GGGTACACGTGCGCTG | -0.01 |
| CGTGACACGTGTTGGC | 0.08 |
| GATTGCACGTGTGATT | 0.01 |
| TTGGACACGTGATTTT | 0.12 |
| TAAATCACGTGGTGCG | 0.22 |
| TTATGCACGTGGGGAC | -0.2 |
| GGCATCACGTGAGGGA | 0.46 |
| GGGGTCACGTGGTTCC | 0.21 |
| CCTGGCACGTGTATGG | -0.13 |
| TAGCGCACGTGTTGTA | -0.18 |
| CTGAGCACGTGGTTTA | -0.06 |
| GGGGCCACGTGGCGGA | -0.22 |
| TGGACCACGTGAGGGT | 0.14 |
| GAGTGCACGTGGTGCA | -0.09 |
| AATGTCACGTGGAGTG | 0.02 |
| CGACTCACGTGTTGGG | 0.21 |
| AGTGACACGTGTCGTA | 0.02 |
| AAGATCACGTGTGGTT | 0.26 |

| Sequence | relative binding free energy [kcal/mol] |
| --- | --- |
| TCAGGCACGTGGTGTT | -0.17 |
| TGTTGCACGTGAGGGG | 0.28 |
| GGTATCACGTGGGCGA | -0.03 |
| GTTTTCACGTGGGACA | 0.19 |
| GGCGTCACGTGGCGTG | 0.04 |
| TAATCCACGTGGTGTG | -0.04 |
| AGTTACACGTGTATTT | 0.13 |
| TTTTTCACGTGTCAGA | 0.37 |
| CGGGTCACGTGTAGCT | 0.35 |
| GGTAGCACGTGCATAG | -0.12 |
| TGCTGCACGTGGGAGT | -0.15 |
| AGGCGCACGTGTTGTG | -0.05 |
| GTTGACACGTGACTGT | 0.19 |
| TATTACACGTGATTAG | 0.17 |
| CGTTGCACGTGGGTTG | -0.19 |
| ATCTGCACGTGTGTGG | 0 |
| GTGGGCACGTGGTAAA | -0.02 |
| GTTAACACGTGGATTG | -0.07 |
| ATGAGCACGTGGGATG | -0.2 |
| TTATTCACGTGAATCG | 0.49 |
| AATTTCACGTGGACGT | 0.33 |
| TTTCCCACGTGGGTTT | -0.23 |
| CTCGGCACGTGGGGGT | -0.23 |
| ATCGTCACGTGTTAAG | 0.14 |
| TGCGGCACGTGAGGTC | 0.18 |

| Sequence | relative binding free energy [kcal/mol] |
| --- | --- |
| ATCGTCACGTGGCTTG | 0.04 |
| CAAGGCACGTGAGTGG | 0.2 |
| TGGTGCACGTGGAGTG | -0.11 |
| TGGATCACGTGATGGA | 0.43 |
| TATGGCACGTGGGGCT | -0.25 |
| AGAGGCACGTGATAGT | 0.08 |
| AGTCTCACGTGATGTA | 0.16 |
| TATTCCACGTGGAGTG | 0.07 |
| TGACCCACGTGTGGGG | -0.01 |
| ATGCGCACGTGTTTAT | 0 |
| CCGGGCACGTGAGTGG | 0.05 |
| TAGGACACGTGGGCGA | -0.17 |
| TTGGCCACGTGTGCAG | -0.09 |
| ATTATCACGTGTGATA | 0.17 |
| GAGGGCACGTGGAATG | -0.03 |
| AGGTACACGTGGCGGT | 0 |
| GGATACACGTGGGATA | 0.16 |
| TTTTTCACGTGTCCGG | 0.33 |
| TGTGCCACGTGGATGG | -0.05 |
| GGGGTCACGTGTATTT | 0.21 |
| CGGGGCACGTGCGAGT | -0.29 |
| GAGGTCACGTGCGATT | 0.22 |
| GTTATCACGTGATGAG | 0.31 |
| GCGGTCACGTGAGTTT | 0.36 |
| ACGGGCACGTGGTGCT | -0.27 |

| Sequence | relative binding free energy [kcal/mol] |
| --- | --- |
| TTAAGCACGTGAAAAG | 0.29 |
| TGGATCACGTGGCGAT | 0.09 |
| AATTTCACGTGTAGCT | 0.27 |
| AGAGCCACGTGTGGTT | -0.02 |
| GATGGCACGTGAATTA | 0.24 |
| TAACTCACGTGGCGTG | 0.22 |
| TTCGACACGTGAGTGG | 0.33 |
| GGTTGCACGTGAAGAT | 0.34 |
| TACAACACGTGTGTGT | 0.03 |
| GGTCGCACGTGGAGGA | -0.04 |
| GATAGCACGTGGTGTT | -0.02 |
| TTTGTCACGTGAAGGA | 0.33 |
| GCCGTCACGTGGTAGT | 0.08 |
| AGGTTCACGTGGGTGG | 0.21 |
| TGTTCCACGTGTGGTT | 0.14 |
| CTAGACACGTGTGTGT | -0.01 |
| TATTACACGTGTGACG | 0.14 |
| TATGTCACGTGTTAGT | 0.12 |
| TGATGCACGTGTCGGA | 0.11 |
| AGGATCACGTGTGATA | 0.19 |
| GGTTACACGTGTTTAA | 0.1 |
| TGTGACACGTGTCAGA | 0.17 |
| TGGATCACGTGGCTGT | 0.12 |
| ATTGGCACGTGGAATT | -0.03 |
| GGTGACACGTGAGTTG | 0.3 |

| Sequence | relative binding free energy [kcal/mol] |
| --- | --- |
| GGAGTCACGTGACTGT | 0.38 |
| TGGTTCACGTGAGTCC | 0.3 |
| GTATTCACGTGGGAGT | 0.14 |
| CTGGGCACGTGTGGGC | -0.18 |
| GTATTCACGTGTTGAT | 0.25 |
| AGGGGCACGTGGAACG | -0.19 |
| CGGTTCACGTGTTCAT | 0.23 |
| GTCTACACGTGTTATG | 0.2 |
| GGGTTCACGTGGGCTG | 0.16 |
| CAAAGCACGTGTTTGA | 0.14 |
| TTAATCACGTGAACGG | 0.49 |
| AGGGACACGTGGGTGG | -0.16 |
| TTTAGCACGTGGTGTA | -0.23 |
| AGAGGCACGTGGGGAT | -0.24 |
| GGGGGCACGTGATTCG | -0.07 |
| GGTATCACGTGGGTGC | 0.06 |
| GGGCTCACGTGTACGG | 0.29 |
| TATAACACGTGAGAGG | 0.34 |
| GTCGCCACGTGTTGGG | -0.11 |
| ACAGTCACGTGTGGAA | 0.31 |
| TATAGCACGTGATTTA | 0.19 |
| GGTAACACGTGTGTAA | 0.12 |
| GGAATCACGTGTGGGA | 0.14 |
| AAGGGCACGTGGGTAC | -0.26 |
| AGTAACACGTGAGAGT | 0.19 |

| Sequence | relative binding free energy [kcal/mol] |
| --- | --- |
| CTTGGCACGTGGAAGA | -0.03 |
| TGGGCCACGTGCGTGT | -0.27 |
| TATAACACGTGTGTAG | -0.13 |
| AGTCTCACGTGGTTTA | 0.17 |
| TTCGACACGTGGTGGC | 0.04 |
| TCTTCCACGTGGGGTA | 0.02 |
| GTTGCCACGTGGTTAT | -0.29 |
| GGTGTCACGTGTCTTG | 0.15 |
| ATTGGCACGTGCAGAG | -0.23 |
| AGCGTCACGTGGCAGT | 0.06 |
| CGTAGCACGTGGTGTG | -0.18 |
| TATCTCACGTGTGGGG | 0.22 |
| TACAACACGTGTTGTT | -0.03 |
| TTATGCACGTGGACGT | -0.02 |
| TAGTGCACGTGTTGCT | 0.12 |
| CCGGGCACGTGGGAGG | -0.12 |
| TTTTTCACGTGTTTGC | 0.27 |
| AACGGCACGTGATGTG | 0.12 |
| TCCTGCACGTGGGTGG | -0.28 |
| CGTTTCACGTGGGAGG | 0.27 |
| GAGTGCACGTGGTGAT | 0.14 |
